Experimental data published in the supplement of paper PMC10126150.
Values marked as one replicate rest on one cluster of the flow cell; about a third of the high ones do not repeat.

What follows are sequences tested on ATP (assay: switch fluorescence ratio, 500 uM ATP over buffer (Cy3 cluster intensity, sum of 5 cycles each) (fold (ratio)); higher = stronger signal-on switching upon ATP binding; sequences stand for … in TCGTCGGCAGCGTCAGATGTGTATAAGAGACAGTTTTTTTTTTTTTTTTTTTTTTTTT…TC). Conditions: aptamer strand: ATP DNA aptamer (quencher-CACCTGGGGGAGTATTGCGGAGGAAGG + anchor), 100 nM annealed; ATP concentration: 500 uM; one replicate.
Procedure, shortened: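 Cy3-labelled switching-strand clusters on a modified Illumina MiSeq flow-cell were annealed to 100 nM quencher-labelled ATP aptamer and imaged first in selection buffer, then after 15 min with 500 uM ATP at 22 °C. NaOH stripping and re-annealing separated each of five buffer/ATP cycles, and clusters outside 100-1000 RFU were excluded. The fluorescence ratio sums target-cycle Cy3 intensity over buffer-cycle Cy3 intensity per cluster and averages it per switch-domain sequence.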
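Also: ATP exposure 15 min at 22 °C before imaging.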

| Sequence | switch fluorescence ratio |
| --- | --- |
| GCCCTGCCGG | 0.997 |
| ACCTTAACAT | 1.05 |
| TTCAATGCG | 0.999 |
| TGTTTTGCTG | 0.984 |
| TATAAATAAA | 1.02 |
| TACACGCAAG | 1.18 |
| TAGCGTGCC | 0.974 |
| GCGGCAGCGA | 0.992 |
| ACGGGATCAG | 1.01 |
| GCCACGGTGC | 1.8 |
| CGGCAACGTA | 0.992 |
| GAGTCTAAAT | 1.04 |
| AAATCGGCGC | 0.993 |
| CCTAGGACG | 0.992 |
| GACTAGATTG | 1 |
| GATATTCGG | 0.989 |
| CTCATCAGGA | 1.01 |
| CCTTGGCAGT | 5.75 |
| CGTCGGGTA | 0.996 |
| ACGTGGGTGA | 1.03 |
| AACAATTTGA | 0.963 |
| GCTTTTTCAG | 0.981 |
| AGGCTACCTT | 1.08 |

| Sequence | switch fluorescence ratio |
| --- | --- |
| ATCGTGTAGT | 0.994 |
| GAGAGTTGAC | 0.927 |
| TCGGGTAGGC | 1.01 |
| TGCGGTGAAC | 1 |
| TGGACCAGAA | 0.996 |
| GGGACGATCA | 1.05 |
| TGGGTACCCA | 1.15 |
| GCGGAGGCAA | 1.07 |
| GGGGAACGTC | 0.99 |
| AGAGAGGGCT | 0.992 |
| ATCGGGGAAG | 0.962 |
| ATTAGGACCA | 1.05 |
| TTTACCCATG | 1.04 |
| TCCAATGTAG | 1.1 |
| GATAATGCAT | 0.998 |
| CTTAAAACTC | 1.13 |
| CTTTGAGGAC | 1.03 |
| GCCGAAAAA | 1.01 |
| TGGAATAACT | 1.05 |
| CCAGGACTAA | 1.04 |
| TGGACGTCGG | 1.03 |
| GGAGAACATT | 0.993 |
| TTTTAGATGT | 0.974 |

| Sequence | switch fluorescence ratio |
| --- | --- |
| ATGCGGGAAT | 1 |
| CGTAGGAACA | 1.04 |
| TTGGAGGGT | 1.52 |
| GGTGTTGTCA | 0.993 |
| CGAGCGGTGG | 1.06 |
| TTATCACGTT | 0.981 |
| CTACCCTGGT | 1.11 |
| AGTCATACAA | 1.03 |
| TAATTTAGCG | 1.01 |
| CGAACTTAAT | 1.05 |
| GAAAATCCCA | 0.99 |
| AATGCGGGTA | 0.973 |
| AAGCTGTATT | 0.994 |
| CTAGAGTCGG | 1.06 |
| TGGTTATATG | 1.02 |
| AAAAAACGCG | 0.96 |
| CCCTTTGCTA | 1.24 |
| TATATAGCGA | 1.03 |
| GATGTTCATG | 0.983 |
| AAGCCATGAG | 1.02 |
| TCGACGGTGG | 1.02 |
| GAAGGGGACA | 1.47 |
| TCAACGTAAT | 1.84 |

| Sequence | switch fluorescence ratio |
| --- | --- |
| GGTACAGTCG | 1.05 |
| GCTATCATT | 0.992 |
| TAGATGATAC | 1.07 |
| GAATCAATTT | 0.937 |
| CAAATAAGCG | 0.98 |
| CCACGAGCTA | 1.55 |
| GCTCTCCAGA | 1.02 |
| GCACCGGTGT | 1.02 |
| CTCGGTTCGA | 0.977 |
| TCTCCATCTG | 1.02 |
| TAACGATCCT | 1.05 |
| ATTTTATGTC | 1.01 |
| ATTACAGGGG | 1.22 |
| GCCCGATGTA | 0.994 |
| TAAGTAGATA | 1.01 |
| TGATTCCACT | 1.04 |
| GTTTTTCCGC | 1.26 |
| GTTTTTGCC | 1.09 |
| CTGTCAGGTA | 0.982 |
| TGCAAATAGC | 1.02 |
| GAAATGTGAT | 0.992 |
| ATGGCATAGC | 0.989 |
| AGTACGCCTA | 1.01 |

| Sequence | switch fluorescence ratio |
| --- | --- |
| TGCTGGATCG | 0.984 |
| GGTTAGACAT | 1 |
| ACGAGCTACG | 1.11 |
| AGTTAGCTTT | 0.985 |
| GTTAGTGCCC | 0.983 |
| CGTTACTTAA | 1.01 |
| GATACGAGTA | 1.37 |
| GGCATTCGGG | 1.03 |
| CCCTGAGGCA | 0.978 |
| GATGGCCGGA | 1.05 |
| CTTACGGGTG | 1.03 |
| GGTAAATAGT | 0.985 |
| TAAGCCCTG | 0.997 |
| TTCATTTTAC | 1.02 |
| CTGTAATTTC | 1.12 |
| CTTGTCCTAT | 0.983 |
| CAGGACTGTA | 1.05 |
| AAAGACACCG | 0.956 |
| GACTAAATAT | 1.01 |
| TGATCATTTT | 0.957 |
| AAAAGCGGTT | 0.971 |
| AACTAAACAT | 1.03 |
| CAGTCAGTTG | 1.03 |

| Sequence | switch fluorescence ratio |
| --- | --- |
| TTATGCATTC | 1.14 |
| CTCGGATACC | 1.14 |
| TTGCCGATCG | 1.04 |
| CACGGCCTGT | 0.997 |
| TTGATCGCAT | 1.09 |
| GGCACGCCTA | 1.36 |
| GGGTTCCGAC | 1.14 |
| GTGTGTAAG | 0.95 |
| ATCATAATGA | 1.01 |
| CTGCGAACCA | 0.984 |
| ATGGAAGATC | 0.97 |
| GTCCGGTCGG | 0.987 |
| TACGTCTCCT | 1.05 |
| GCGTGTCGTC | 1.03 |
| AACCTCTCAC | 1.22 |
| CTAATCAGGG | 1.02 |
| CCAAGCGTTA | 1.35 |
| ACGATACTTC | 1.44 |
| TAGATATCGT | 1.04 |
| GACTTCAGC | 0.993 |
| GCTATTAGAG | 0.984 |
| ACGAAAAGCT | 1.08 |
| GTTATGTGTT | 0.981 |

| Sequence | switch fluorescence ratio |
| --- | --- |
| TCATAGTAAG | 1.01 |
| ACACCCAATT | 1.15 |
| TCTAAATTTC | 1.01 |
| GCTGACCCTA | 1.03 |
| ATGAATTGAT | 1.02 |
| TTTGATGA | 1.04 |
| TCAATAACGT | 1.03 |
| GGGTTCGTTT | 0.984 |
| AGTGTCTTGT | 0.991 |
| CTGGTGAACA | 1 |
| ATGAGGACGA | 1.18 |
| CTACTGTAAA | 1.14 |
| AGAGATGGTG | 1.04 |
| GCTTAGCACG | 1.04 |
| ACAGTCCGGG | 1.03 |
| TTACTTTTG | 1 |
| ACCGTAACAT | 1.1 |
| CGAGACTGCA | 1.05 |
| AAAGCCGGT | 1.03 |
